Assay results taken from patent publication US20250034756A1 (Chugai, published 2025).
Positions count from the first letter of the chain named.

B1: EEIVHE/EEIVL (antibody, human IgG1, kappa)
heavy: QMQLVESGGGVVQPGRSLRLSCTASGFTFSNNGMHWVRQAPGKGLEWVAVIWFDGMNKFYVDSVKGRFTISRDNSKNTLYLEMNSLRAEDTAIYYCAREGDGSGIYYYYGMDVWGQGTTVTVSSALSGRSDNHSTKGPSVFPLAPSSKSTSGGTAALGCLVKDYFPEPVTVSWNSGALTSGVHTFPAVLQSSGLYSLSSVVTVPSSSLGTQTYICNVNHKPSNTKVDKKV[human IgG1 Fc not given here]
light: [about 100 residues not given here][about 120 residues not given here]
notes: IgG1
B2: EEIVHA/EEIVL (antibody, human IgG1, kappa)
heavy: QMQLVESGGGVVQPGRSLRLSCTASGFTFSNNGMHWVRQAPGKGLEWVAVIWFDGMNKFYVDSVKGRFTISRDNSKNTLYLEMNSLRAEDTAIYYCAREGDGSGIYYYYGMDVWGQGTTVTVSSLSGRSDNH[human IgG1 constant region not given here]
light: [about 100 residues not given here][about 120 residues not given here]
notes: IgG1
B3: EEIVHB/EEIVL (antibody, human IgG1, kappa)
heavy: B1 heavy with L126S, S127L, G128S, R129G, S130R, D131S, N132D, H133N, S134H
light: [about 100 residues not given here][about 120 residues not given here]
notes: IgG1
B4: EEIVHBG/EEIVL (antibody, human IgG1, kappa)
heavy: B1 heavy with L126S, S127L, G128S, R129G, S130R, D131S, N132D, H133N, S134H, T135G
light: [about 100 residues not given here][about 120 residues not given here]
notes: IgG1
B5: EEIVHC/EEIVL (antibody, human IgG1, kappa)
heavy: B2 heavy with S123L, L125G, S126R, G127S, R128D, S129N, D130H, N131S, H132S
light: [about 100 residues not given here][about 120 residues not given here]
notes: IgG1
B6: EEIVHD/EEIVL (antibody, human IgG1, kappa)
heavy: B2 heavy with S124L, L125S, S126G, G127R, R128S, S129D, D130N, N131H, H132S
light: [about 100 residues not given here][about 120 residues not given here]
notes: IgG1
B7: EEIVHEG/EEIVL (antibody, human IgG1, kappa)
heavy: B1 heavy with S134G
light: [about 100 residues not given here][about 120 residues not given here]
notes: IgG1
B8: EEIVHF/EEIVL (antibody, human IgG1, kappa)
heavy: B1 heavy with L126S, S127T, G128L, R129S, S130G, D131R, N132S, H133D, S134N, T135H
light: [about 100 residues not given here][about 120 residues not given here]
notes: IgG1
B9: EEIVHG/EEIVL (antibody, human IgG1, kappa)
heavy: B1 heavy with L126S, S127T, G128K, R129L, D131G, N132R, H133S, S134D, T135N, K136H
light: [about 100 residues not given here][about 120 residues not given here]
notes: IgG1
B10: EEIVH/EEIVLE (antibody, human IgG1, kappa)
heavy: QMQLVESGGGVVQPGRSLRLSCTASGFTFSNNGMHWVRQAPGKGLEWVAVIWFDGMNKFYVDSVKGRFTISRDNSKNTLYLEMNSLRAEDTAIYYCAREGDGSGIYYYYGMDVWGQGTTVTVSS[human IgG1 constant region not given here]
light: [about 100 residues not given here]TFGPGTKVDIKRLSGRSDNHTVAAPSVFIFPPSDEQLKSGTASVVCLLNNFYPREAKVQWKVDNALQSGNSQESVTEQDSKDSTYSLSSTLTLSKADYEKHKVYACEVTHQGLSSPVTKSFNRGEC
notes: IgG1
B11: EEIVH/EEIVLA (antibody, human IgG1, kappa)
heavy: B10 heavy
light: [about 100 residues not given here]TFGPGTKVDIKLSGRSDNHRTVAAPSVFIFPPSDEQLKSGTASVVCLLNNFYPREAKVQWKVDNALQSGNSQESVTEQDSKDSTYSLSSTLTLSKADYEKHKVYACEVTHQGLSSPVTKSFNRGEC
notes: IgG1
B12: EEIVH/EEIVLB (antibody, human IgG1)
heavy: B10 heavy
light: [about 100 residues not given here]TFGPGTKVDIKRTLSGRSDNHVAAPSVFIFPPSDEQLKSGTASVVCLLNNFYPREAKVQWKVDNALQSGNSQESVTEQDSKDSTYSLSSTLTLSKADYEKHKVYACEVTHQGLSSPVTKSFNRGEC
notes: IgG1
B13: EEIVH/EEIVLC (antibody, human IgG1, kappa)
heavy: B10 heavy
light: [about 100 residues not given here]TFGPGTKVDLSGRSDNHIKRTVAAPSVFIFPPSDEQLKSGTASVVCLLNNFYPREAKVQWKVDNALQSGNSQESVTEQDSKDSTYSLSSTLTLSKADYEKHKVYACEVTHQGLSSPVTKSFNRGEC
notes: IgG1
B14: EEIVH/EEIVLD (antibody, human IgG1, kappa)
heavy: B10 heavy
light: [about 100 residues not given here]TFGPGTKVDILSGRSDNHKRTVAAPSVFIFPPSDEQLKSGTASVVCLLNNFYPREAKVQWKVDNALQSGNSQESVTEQDSKDSTYSLSSTLTLSKADYEKHKVYACEVTHQGLSSPVTKSFNRGEC
notes: IgG1
B15: EEIVH/EEIVLEG (antibody, human IgG1)
heavy: B10 heavy
light: [about 100 residues not given here]TFGPGTKVDIKRLSGRSDNHGVAAPSVFIFPPSDEQLKSGTASVVCLLNNFYPREAKVQWKVDNALQSGNSQESVTEQDSKDSTYSLSSTLTLSKADYEKHKVYACEVTHQGLSSPVTKSFNRGEC
notes: IgG1
B16: EEIVH/EEIVLF (antibody, human IgG1)
heavy: B10 heavy
light: [about 100 residues not given here]TFGPGTKVDIKRTVLSGRSDNHAAPSVFIFPPSDEQLKSGTASVVCLLNNFYPREAKVQWKVDNALQSGNSQESVTEQDSKDSTYSLSSTLTLSKADYEKHKVYACEVTHQGLSSPVTKSFNRGEC
notes: IgG1
B17: EEIVH/EEIVLG (antibody, human IgG1)
heavy: B10 heavy
light: [about 100 residues not given here]TFGPGTKVDIKRTVALSGRSDNHAPSVFIFPPSDEQLKSGTASVVCLLNNFYPREAKVQWKVDNALQSGNSQESVTEQDSKDSTYSLSSTLTLSKADYEKHKVYACEVTHQGLSSPVTKSFNRGEC
notes: IgG1
B18: EEIVHC002/EEIVL (antibody, human IgG1, kappa)
heavy: QMQLVESGGGVVQPGRSLRLSCTASGFTFSNNGMHWVRQAPGKGLEWVAVIWFDGMNKFYVDSVKGRFTISRDNSKNTLYLEMNSLRAEDTAIYYCAREGDGSGIYYYYGMDVWGQGTTVTVGLSGRSDNHGSS[human IgG1 constant region not given here]
light: [about 100 residues not given here][about 120 residues not given here]
notes: IgG1
B19: EEIVHC003/EEIVL (antibody, human IgG1, kappa)
heavy: QMQLVESGGGVVQPGRSLRLSCTASGFTFSNNGMHWVRQAPGKGLEWVAVIWFDGMNKFYVDSVKGRFTISRDNSKNTLYLEMNSLRAEDTAIYYCAREGDGSGIYYYYGMDVWGQGTTVTVSGLSGRSDNHGSSS[human IgG1 constant region not given here]
light: [about 100 residues not given here][about 120 residues not given here]
notes: IgG1
B20: EEIVHC004/EEIVL (antibody, human IgG1, kappa)
heavy: QMQLVESGGGVVQPGRSLRLSCTASGFTFSNNGMHWVRQAPGKGLEWVAVIWFDGMNKFYVDSVKGRFTISRDNSKNTLYLEMNSLRAEDTAIYYCAREGDGSGIYYYYGMDVWGQGTTVTVGSGLSGRSDNHGSSSS[human IgG1 constant region not given here]
light: [about 100 residues not given here][about 120 residues not given here]
notes: IgG1
B21: EEIVHC005/EEIVL (antibody, human IgG1, kappa)
heavy: QMQLVESGGGVVQPGRSLRLSCTASGFTFSNNGMHWVRQAPGKGLEWVAVIWFDGMNKFYVDSVKGRFTISRDNSKNTLYLEMNSLRAEDTAIYYCAREGDGSGIYYYYGMDVWGQGTTVTVGGSGLSGRSDNHGSSGSS[human IgG1 constant region not given here]
light: [about 100 residues not given here][about 120 residues not given here]
notes: IgG1

Experiments:
[1] = molecular target: T1, human CXCL10 (human, UniProt P02778 22-98); test: Biacore SPR, antibody captured on protein A (CM3 chip), human CXCL10 as analyte at 3.125, 1.563, 0.781 nM, 25 C
T1 construct: Two bought lots of the same protein are treated as one molecule; also called hCXCL10; IP-10

[2] = molecular target: T1, human CXCL10; test: as above; remark: listed apart in the source
[3] = molecular target: T1, human CXCL10; test: Biacore SPR, antibody captured on protein A (CM3 chip), human CXCL10 as analyte at 6.25, 3.125, 1.563, 0.781 nM, 300 mM NaCl, 25 C

Binder	binding result [1]	binding result [2]	other results
B1	binds		
B2	binds		
B3	binds		
B4	binds		
B5	binds		
B6	binds		
B7	binds		
B8	binds		
B9	binds		
B10		binds	
B11		binds	
B12		binds	
B13		binds	
B14		binds	
B15		binds	
B16		binds	
B17		binds	
B18			binding result [3]: binds
B19			binding result [3]: binds
B20			binding result [3]: binds
B21			binding result [3]: binds
